According to the supplement of paper PMC9446081:
The campaign covered roughly 39,000 compounds. About 220 (0.56%) showed activity. The list shows a part of the results.

Each compound was assayed on Escherichia coli K-12 BW25113 (assay: relative growth (OD600 normalised to plate interquartile mean) (fraction); higher = less growth inhibition, active = 0.2 or less). Conditions: 50 µM; LB; incubation time: overnight (16-24 h).
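Further: static incubation at 37 °C against the wild-type strain, values averaged over two biological replicates.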

Row | Compound | relative growth
1 | CC(C)NC(=O)Nc1ccc2c(c1)CC(=O)N([C@H](C)CO)C[C@H](C)[C@H](CN(C)S(=O)(=O)c1ccc(F)cc1)O2 | inactive: 1.02
2 | COc1cccc(C(=O)Nc2ccc3c(c2)C(=O)N(C)[C@H]2CC[C@H](CC(=O)Nc4ccc5c(c4)CCCC5)O[C@@H]2CO3)c1 | inactive: 0.998
3 | C[C@@H]1CN([C@@H](C)CO)C(=O)c2cc(NS(=O)(=O)c3cn(C)cn3)ccc2O[C@@H](C)CCCCO[C@H]1CN(C)S(=O)(=O)c1ccc(F)cc1 | inactive: 1.02
4 | CCN(CC)CCNC(=O)COc1ccc(OC)cc1.Cl | inactive: 0.98
5 | CC(=O)c1ccc(O)c(C(N)=O)c1 | inactive: 0.976
6 | C[C@@H]1CCCCO[C@@H](CN(C)Cc2ccncc2)[C@H](C)CN([C@H](C)CO)C(=O)c2cc(NS(C)(=O)=O)ccc2O1 | inactive: 1
7 | C[C@H]1CN([C@@H](C)CO)C(=O)Cc2cc(NC(=O)C3CC3)ccc2O[C@@H]1CN(C)C(=O)Nc1ccccc1 | inactive: 0.988
8 | C[C@H](CO)N1C[C@H](C)[C@@H](CN(C)C(=O)Nc2cccc3ccccc23)Oc2ccc(NC(=O)Nc3ccc(C(F)(F)F)cc3)cc2C1=O | inactive: 1.02
9 | C[C@H](CO)N1C[C@H](C)[C@@H](CN(C)S(=O)(=O)c2cn(C)cn2)Oc2ccc(NC(=O)Cn3cnnn3)cc2CC1=O | inactive: 1
10 | NCCC(=O)NC(Cc1c[nH]cn1)C(=O)O (centres undefined) | inactive: 0.933
11 | CC(C)C#Cc1ccc2c(c1)O[C@@H](CN(C)C(=O)c1cccc(F)c1)[C@H](C)CN([C@@H](C)CO)S2(=O)=O | inactive: 0.921
12 | COc1ccc(CN(C)C[C@H]2OCCCC[C@H](C)Oc3ccc(NS(=O)(=O)c4ccc(C)cc4)cc3C(=O)N([C@@H](C)CO)C[C@H]2C)cc1 | inactive: 0.999
13 | C[C@@H]1CN([C@@H](C)CO)C(=O)c2cccc(NC(=O)C3CCOCC3)c2O[C@@H]1CN(C)C(=O)Nc1ccc2c(c1)OCO2 | inactive: 1.01
14 | CN(C)C(=O)c1cc2c(c(-c3cccc(/C=C/c4ccccc4)c3)n1)[C@H](CCO)N([S@@](=O)C(C)(C)C)C2 | inactive: 0.992
15 | C[C@@H]1CN([C@H](C)CO)C(=O)Cc2cc(NS(=O)(=O)c3cn(C)cn3)ccc2O[C@@H]1CN(C)C(=O)Nc1ccc2c(c1)OCO2 | inactive: 1.01
16 | O=C(C[C@H]1CC=CCC[C@H](Cc2ccc(F)cc2)C(=O)OC[C@H](Cc2ccccc2)NC1=O)NCCO | inactive: 0.973
17 | C[C@@H]1CN([C@@H](C)CO)C(=O)c2cc(NC(=O)CCC(F)(F)F)ccc2O[C@@H](C)CCCCO[C@@H]1CN(C)S(=O)(=O)c1ccc(F)cc1 | inactive: 1.01
18 | C[C@@H]1CN([C@H](C)CO)C(=O)c2cccc(NS(=O)(=O)c3ccccc3)c2O[C@H]1CN(C)Cc1ccncc1 | inactive: 0.956
19 | COc1ccc(S(=O)(=O)Nc2cccc3c2O[C@H](CN(C)Cc2ccc(Oc4ccccc4)cc2)[C@H](C)CN([C@H](C)CO)C3=O)cc1 | inactive: 0.974
20 | Cc1ccc(S(=O)(=O)N(C)C[C@H]2OCCCC[C@H](C)Oc3ccc(NC(=O)CCC(F)(F)F)cc3C(=O)N([C@@H](C)CO)C[C@H]2C)cc1 | inactive: 1.02

Row | Compound | relative growth
21 | C[C@@H]1CN([C@@H](C)CO)C(=O)c2cc(NC(=O)Nc3ccc(C(F)(F)F)cc3)ccc2O[C@@H]1CN(C)S(=O)(=O)c1ccc(Cl)cc1 | inactive: 1.04
22 | CNC[C@H]1OCCCC[C@@H](C)Oc2ccc(NC(=O)Nc3cccc4ccccc34)cc2C(=O)N([C@@H](C)CO)C[C@@H]1C | inactive: 0.985
23 | C[C@@H]1CN([C@H](C)CO)C(=O)c2cc(NC(=O)CCC(F)(F)F)ccc2O[C@@H](C)CCCCO[C@H]1CN(C)Cc1ccncc1 | inactive: 0.992
24 | CC(C)c1c(C(=O)Nc2ccccc2)c(-c2ccccc2)c(-c2ccc(F)cc2)n1CCC(O)CC(O)CC(=O)[O-].[Ca+2] (centres undefined) | inactive: 0.966
25 | C[C@H](CO)N1C[C@H](C)[C@H](CN(C)Cc2ccc(C(F)(F)F)cc2)OCCCC[C@H](C)Oc2ccc(NS(=O)(=O)c3ccc(F)cc3)cc2C1=O | inactive: 0.879
26 | CC(=O)c1ccc(OCc2nnn(CC(=O)NS(=O)(=O)Cc3ccccc3)c2-c2ccccc2)cc1 | inactive: 0.983
27 | CC/C(=C\C(=N\O)C(N)=O)[C@@H](C)[N+](=O)[O-] | inactive: 0.979
28 | COC(CNC1=Nc2ncccc2OC1)OC | inactive: 1
29 | COc1ccc(NC(=O)Nc2ccc3c(c2)CC(=O)N([C@@H](C)CO)C[C@H](C)[C@@H](CN(C)CC2CCCCC2)O3)cc1 | inactive: 1
30 | C[C@@H]1CN([C@@H](C)CO)C(=O)c2cc(NC(=O)Nc3cccc4ccccc34)ccc2O[C@@H]1CN(C)Cc1ccc(Oc2ccccc2)cc1 | inactive: 1.04
31 | O=C1CSC(=S)N1 | inactive: 0.986
32 | C[C@H](CO)N1C[C@H](C)[C@H](CN(C)CC2CCCCC2)Oc2c(NC(=O)Nc3ccc(C(F)(F)F)cc3)cccc2C1=O | inactive: 0.963
33 | Cc1noc(C)c1NC(=O)Nc1ccc2c(c1)C(=O)N([C@H](C)CO)C[C@H](C)[C@H](CN(C)Cc1ccncc1)OCCCC[C@@H](C)O2 | inactive: 1.01
34 | C[C@H]1CN([C@@H](C)CO)C(=O)c2cccc(NC(=O)Nc3ccccc3)c2O[C@H]1CN(C)Cc1ccc(C(F)(F)F)cc1 | inactive: 0.915
35 | O=C(C[C@H]1C[C@@H]2c3cc(NS(=O)(=O)c4ccc(F)cc4)ccc3O[C@@H]2[C@H](CO)O1)NCc1ccncc1 | inactive: 1.02
36 | Cn1cnc(S(=O)(=O)N[C@@H]2C=C[C@@H](CC(=O)Nc3ccccc3)O[C@H]2CO)c1 | inactive: 0.886
37 | C[C@@H]1CN([C@@H](C)CO)C(=O)c2cc(NC(=O)Nc3cccc4ccccc34)ccc2O[C@@H]1CN(C)C(=O)Nc1ccccc1 | inactive: 1.03
38 | O=C(C[C@H](Nc1ccc(F)cc1)c1ccccc1)c1ccccc1 | inactive: 0.997
39 | Cc1noc(C)c1NC(=O)Nc1cccc2c1O[C@H](CN(C)S(=O)(=O)c1ccccc1)[C@@H](C)CN([C@H](C)CO)C2=O | inactive: 1.03
40 | O=C1c2ccccc2[C@@]2(Cc3ccccc3N(CC(F)(F)F)C2=O)[C@H](c2ccc(CO)cc2)N1Cc1ccccc1Cl | inactive: 1.03

Row | Compound | relative growth
41 | C[C@@H]1CN([C@H](C)CO)C(=O)c2cc(NC(=O)CCC(F)(F)F)ccc2O[C@@H](C)CCCCO[C@@H]1CN(C)Cc1ccc(Cl)c(Cl)c1 | inactive: 0.968
42 | C[C@@H]1CCCCO[C@@H](CN(C)C(=O)Nc2cccc3ccccc23)[C@@H](C)CN([C@H](C)CO)C(=O)c2cc(NC(=O)C3CCCCC3)ccc2O1 | inactive: 0.98
43 | COc1ccc(NC(=O)Nc2ccc3c(c2)C(=O)N([C@H](C)CO)C[C@H](C)[C@H](CN(C)C(=O)CCC(F)(F)F)OCCCC[C@H](C)O3)cc1 | inactive: 1
44 | COc1ccc(S(=O)(=O)N2C[C@@H](O)COC[C@H]3O[C@@H](CC(=O)N[C@H]4CCN(Cc5ccccc5)C4)CC[C@@H]32)cc1 | inactive: 0.965
45 | COCC#Cc1ccc2c(c1)O[C@@H](CN(C)C(=O)Nc1ccc(OC)cc1)[C@@H](C)CN([C@H](C)CO)S2(=O)=O | inactive: 1.01
46 | C[C@@H]1CN([C@H](C)CO)S(=O)(=O)c2ccc(-c3cncnc3)cc2O[C@H]1CN(C)C(=O)Cc1ccncc1 | inactive: 1.04
47 | C[C@@H]1CN([C@@H](C)CO)C(=O)c2c(c3ccccc3n2C)-c2ccccc2CO[C@H]1CN(C)CC1CCCCC1 | inactive: 0.994
48 | C[C@H]1CN([C@@H](C)CO)C(=O)CCCn2cc(nn2)CO[C@@H]1CN(C)S(=O)(=O)c1cn(C)cn1 | inactive: 1.02
49 | C[C@H](CO)N1C[C@H](C)[C@@H](CN(C)Cc2ccc(C(=O)O)cc2)Oc2ccc(NS(C)(=O)=O)cc2C1=O | inactive: 0.976
50 | C[C@@H]1CN([C@H](C)CO)C(=O)c2cccc(NS(C)(=O)=O)c2O[C@H]1CN(C)S(=O)(=O)c1ccc(Cl)cc1 | inactive: 0.994
51 | C[C@H](CO)N1C[C@H](C)[C@H](CN(C)S(=O)(=O)c2cn(C)cn2)Oc2ccc(NC(=O)CCCN(C)C)cc2C1=O | inactive: 0.991
52 | Cn1cnc(S(=O)(=O)N[C@H]2C=C[C@@H](CC(=O)Nc3ccccc3)O[C@@H]2CO)c1 | inactive: 0.994
53 | C[C@@H]1CN([C@@H](C)CO)C(=O)c2cccc(NS(=O)(=O)c3cccs3)c2O[C@@H]1CN(C)S(=O)(=O)c1ccccc1 | inactive: 1.02
54 | C[C@@H]1CN([C@@H](C)CO)C(=O)c2cc(NC(=O)c3ccccc3)ccc2O[C@@H](C)CCCCO[C@@H]1CN(C)C(=O)c1ccccc1 | inactive: 1.01
55 | CC(C)(C)OC(=O)CC[C@]1(C(=O)NCc2ccccc2)N=C(c2ccc(OCCCO)cc2)O[C@H]1c1ccccc1 | inactive: 0.993
56 | C[C@H](CO)N1C[C@H](C)[C@H](CN(C)Cc2ccc(Oc3ccccc3)cc2)Oc2ccc(NC(=O)c3ccncc3)cc2C1=O | inactive: 1.01
57 | CC(C)NC(=O)Nc1ccc2c(c1)CC(=O)N([C@H](C)CO)C[C@H](C)[C@H](CN(C)Cc1ccc(C(=O)O)cc1)O2 | inactive: 1.02
58 | C[C@@H]1CCCCO[C@H](CN(C)C(=O)Cc2ccccc2)[C@@H](C)CN([C@H](C)CO)C(=O)c2cc(NC(=O)Nc3cccc4ccccc34)ccc2O1 | inactive: 1.05
59 | C[C@H](CO)N1C[C@H](C)[C@H](CN(C)C(=O)Cc2ccccc2)OCCCC[C@H](C)Oc2ccc(NC(=O)c3ccccc3)cc2C1=O | inactive: 0.987
